This note sets out measurements from the supplement of paper PMC12645437, “Orthogonal IMiD-Degron Pairs Induce Selective Protein Degradation in Cells” (ACS Chemical Biology, 2025).

The other results are listed elsewhere or left out.
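Also: jurkat cells carrying a lentiviral library of mutant zinc finger degrons fused to EGFP plus mCherry, mCherry+ cells FACS sorted, degron abundance counted by next-generation sequencing.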

This experiment has as its target no compound (DMSO). The experiment is described as follows: log2 fold change of degron read counts, EGFP-low vs EGFP+ sorted cells; higher = lower degron-EGFP level without compound (poor expression or instability). The settings on record: compound: DMSO control; 18 h.
Take FGCNVCGAVFTQKGNLLRHIKL: the “log2 fold change of degron read counts” value is 0.377.
As for FTCPICGRGFTQKGNLLRHIKL, the “log2 fold change of degron read counts” value worked out at 0.0992.
For LQCPICGFLCTQKGNLLRHIKL the value was 0.753.
Turning to FLCEQCGAYFTQKGNLLRHIKL, the “log2 fold change of degron read counts” value is -0.84.
Regarding LECEICGFLCTQKGNLLRHIKL, the “log2 fold change of degron read counts” value is 0.509.
Regarding FECEQCGACFTQKGNLLRHIKL, the “log2 fold change of degron read counts” value was -1.87.
As to FQCSVCGHGFTQKGNLLRHIKL, the “log2 fold change of degron read counts” value is -0.987.
In the case of FSCNQCGHYFTQKGNLLRHIKL, the “log2 fold change of degron read counts” value was 0.742.
The result for FSCSVCGHWFTQKGNLLRHIKL reads 0.499; that for FLCPQCGASFTQKGNLLRHIKL, -1.04.
Consider LFCNQCGFMCTQKGNLLRHIKL, for which the “log2 fold change of degron read counts” value turned out to be 1.37.
Regarding LRCNQCGFDCTQKGNLLRHIKL, the “log2 fold change of degron read counts” value was 0.174.
In the case of FSCEICGASFTQKGNLLRHIKL, the “log2 fold change of degron read counts” value was -1.54.
Take FHCEICGRMFTQKGNLLRHIKL: the “log2 fold change of degron read counts” value is -0.651.
For the sequence FSCNICGALFTQKGNLLRHIKL, the “log2 fold change of degron read counts” value was -0.00873.
Turning to FWCPVCGAAFTQKGNLLRHIKL, the “log2 fold change of degron read counts” value was found to be 0.932.
For FQCSVCGHAFTQKGNLLRHIKL, the “log2 fold change of degron read counts” value was -0.863.
In the case of FCCPICGHNFTQKGNLLRHIKL, the “log2 fold change of degron read counts” value is 0.0154.
In the case of FRCPQCGASFTQKGNLLRHIKL, the “log2 fold change of degron read counts” value was -1.18.
The result for FCCPVCGAPFTQKGNLLRHIKL reads 0.709; that for FFCNICGALFTQKGNLLRHIKL, 0.821; that for LGCEICGFSCTQKGNLLRHIKL, 0.121.
Consider FSCEQCGAAFTQKGNLLRHIKL, for which the “log2 fold change of degron read counts” value was -1.58.
For the sequence FYCDQCGAAFTQKGNLLRHIKL, the “log2 fold change of degron read counts” value was -2.35.
With FNCNQCGATFTQKGNLLRHIKL, the “log2 fold change of degron read counts” value was -0.701.
On to FQCPVCGATFTQKGNLLRHIKL, for which the “log2 fold change of degron read counts” value was -0.375.
In the case of LLCNQCGFYCTQKGNLLRHIKL, the “log2 fold change of degron read counts” value worked out at 1.73.
Consider FICEQCGAHFTQKGNLLRHIKL, for which the “log2 fold change of degron read counts” value is -2.55.
Take FQCDVCGAIFTQKGNLLRHIKL: the “log2 fold change of degron read counts” value is -1.4.
The result for FACEICGAEFTQKGNLLRHIKL reads -2.36.
Take FHCPICGAWFTQKGNLLRHIKL: the “log2 fold change of degron read counts” value was determined as 0.107.
With LQCPICGFGCTQKGNLLRHIKL, the “log2 fold change of degron read counts” value was 0.855.
LLCEICGFRCTQKGNLLRHIKL: the “log2 fold change of degron read counts” value is 0.13.
Take FACEICGAGFTQKGNLLRHIKL: the “log2 fold change of degron read counts” value was -1.04.
On to FECNQCGRDFTQKGNLLRHIKL, for which the “log2 fold change of degron read counts” value was -1.03.
Turning to FWCDVCGAHFTQKGNLLRHIKL, the “log2 fold change of degron read counts” value is -0.66.
FECEVCGALFTQKGNLLRHIKL: the “log2 fold change of degron read counts” value was -2.78.
As to FACSVCGHYFTQKGNLLRHIKL, the “log2 fold change of degron read counts” value is -0.375.
Turning to FGCEICGRGFTQKGNLLRHIKL, the “log2 fold change of degron read counts” value was -0.672.
Turning to FQCPICGRAFTQKGNLLRHIKL, the “log2 fold change of degron read counts” value amounted to 0.308.
As for FSCNQCGHGFTQKGNLLRHIKL, the “log2 fold change of degron read counts” value came out at 0.0358.
With FCCEVCGAGFTQKGNLLRHIKL, the “log2 fold change of degron read counts” value was -1.03.
As for FGCEICGATFTQKGNLLRHIKL, the “log2 fold change of degron read counts” value was -1.04.
For FNCPICGHMFTQKGNLLRHIKL the value was 0.0712.
For FHCDQCGAEFTQKGNLLRHIKL, the “log2 fold change of degron read counts” value was -2.14.
As for FNCDQCGAVFTQKGNLLRHIKL, the “log2 fold change of degron read counts” value was -1.56.
For FICSVCGHRFTQKGNLLRHIKL the value was -0.703.
FACPICGHLFTQKGNLLRHIKL: the “log2 fold change of degron read counts” value is -0.21.
Consider FACPVCGASFTQKGNLLRHIKL, for which the “log2 fold change of degron read counts” value was -0.332.
On to FACEICGHCFTQKGNLLRHIKL, for which the “log2 fold change of degron read counts” value was -0.864.
